# Experimental data from the supplement of paper PMC10037445.
# Whole data set: some 2,900 compounds, median “NF-kB SEAP reporter activity, fold change vs agonist alone” near 0.99, cut for the highest 2% near 2.6. This is one part of the list.
# Experiments:
# RAW-Dual [1] = test: NF-kB SEAP reporter activity, fold change vs agonist alone; higher = enhanced NF-kB activity; settings: library stock concentration (final ~1000-fold dilution): 10 mM
# Summary of the method: (§1)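 Reporter activity is given as fold change relative to agonist-alone wells. To measure it, 50 nL of library stock was pin-tooled onto RAW-Dual macrophages (50,000 cells/well, DMEM, 384-well plates), a PRR agonist followed 1 h later, and cells stayed at 37 °C, 5% CO2. Twenty hours on, supernatant was assayed for IRF (QuantiLuc luminescence) and NF-κB (QuantiBlue, 620 nm absorbance), and wells under 70% of agonist-control IncuCyte confluency in both mask sets were marked cytotoxic.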
# RAW-Dual [2] = test: NF-kB SEAP reporter activity, fold change vs agonist alone; cytotoxicity flag (confluency mask): cytotoxic (confluency <70% of control); higher = enhanced NF-kB activity
# Summary of the method: as §1
# RAW-Dual [3] = test: NF-kB SEAP reporter activity, fold change vs agonist alone; cytotoxicity flag (confluency mask): not cytotoxic; higher = enhanced NF-kB activity
# Summary of the method: as §1
# [4] = cytotoxicity flag (confluency mask): cytotoxic (confluency <70% of control), agonist: Imiquimod (TLR7) […]
# [5] = cytotoxicity flag (confluency mask): cytotoxic (confluency <70% of control), agonist: MPLA (TLR4) […]
# [6] = agonist: ODN 1826 (TLR9) 0.5 ug/mL
# [7] = agonist: Pam2CSK4 (TLR2/6) 0.1 ug/mL
# [8] = agonist: Pam3CSK4 (TLR2/1) 0.1 ug/mL
# [9] = cytotoxicity flag (confluency mask): not cytotoxic, agonist: Imiquimod (TLR7) […]
# [10] = cytotoxicity flag (confluency mask): not cytotoxic, agonist: MPLA (TLR4) […]
smiles,measurement,setting,value
CC12CCC3c4ccc(O)cc4CCC3C1CCC2OC(=O)CCC1CCCC1 (stereo not drawn),NF-kB SEAP reporter activity,RAW-Dual [1]; [4],1.32
same,NF-kB SEAP reporter activity,RAW-Dual [1]; [5],1.06
CC12CCC3c4ccc(O)cc4CCC3C1CCC2OC(=O)CCC1CCCC1 (stereo not drawn) (library stock concentration (final ~1000-fold dilution): 10 mM),NF-kB SEAP reporter activity,RAW-Dual [2]; agonist: LPS (TLR4) 0.1 ug/mL,0.778
same,NF-kB SEAP reporter activity,RAW-Dual [2]; [6],0.986
same,NF-kB SEAP reporter activity,RAW-Dual [2]; [7],1.01
same,NF-kB SEAP reporter activity,RAW-Dual [2]; [8],0.995
O=C1C[C@@H](c2ccc(O)cc2)Oc2cc(O)cc(O)c21 (library stock concentration (final ~1000-fold dilution): 10 mM),NF-kB SEAP reporter activity,RAW-Dual [3]; agonist: LPS (TLR4) 0.1 ug/mL,0.961
same,NF-kB SEAP reporter activity,RAW-Dual [3]; [6],0.78
same,NF-kB SEAP reporter activity,RAW-Dual [3]; [7],0.391
same,NF-kB SEAP reporter activity,RAW-Dual [3]; [8],0.577
O=C1C[C@@H](c2ccc(O)cc2)Oc2cc(O)cc(O)c21,NF-kB SEAP reporter activity,RAW-Dual [1]; [9],1.13
same,NF-kB SEAP reporter activity,RAW-Dual [1]; [10],1.19
Cc1ccc([N+](=O)[O-])cc1S(=O)(=O)N(C)C (library stock concentration (final ~1000-fold dilution): 10 mM),NF-kB SEAP reporter activity,RAW-Dual [3]; agonist: LPS (TLR4) 0.1 ug/mL,1.07
same,NF-kB SEAP reporter activity,RAW-Dual [3]; [6],0.867
same,NF-kB SEAP reporter activity,RAW-Dual [3]; [7],0.994
same,NF-kB SEAP reporter activity,RAW-Dual [3]; [8],1.36
Cc1ccc([N+](=O)[O-])cc1S(=O)(=O)N(C)C,NF-kB SEAP reporter activity,RAW-Dual [1]; [9],0.951
same,NF-kB SEAP reporter activity,RAW-Dual [1]; [10],1.14
NC(=O)c1ccccn1,NF-kB SEAP reporter activity,RAW-Dual [1]; [10],1.08
NC(=O)c1ccccn1 (library stock concentration (final ~1000-fold dilution): 10 mM),NF-kB SEAP reporter activity,RAW-Dual [3]; agonist: LPS (TLR4) 0.1 ug/mL,1.07
same,NF-kB SEAP reporter activity,RAW-Dual [3]; [6],0.942
same,NF-kB SEAP reporter activity,RAW-Dual [3]; [7],1.06
same,NF-kB SEAP reporter activity,RAW-Dual [3]; [8],0.836
Cl.N=C1CCCN1Cc1[nH]c(=O)[nH]c(=O)c1Cl,NF-kB SEAP reporter activity,RAW-Dual [1]; [9],1.01
same,NF-kB SEAP reporter activity,RAW-Dual [1]; [10],1.1
Cl.N=C1CCCN1Cc1[nH]c(=O)[nH]c(=O)c1Cl (library stock concentration (final ~1000-fold dilution): 10 mM),NF-kB SEAP reporter activity,RAW-Dual [3]; agonist: LPS (TLR4) 0.1 ug/mL,1.08
same,NF-kB SEAP reporter activity,RAW-Dual [3]; [6],1.03
same,NF-kB SEAP reporter activity,RAW-Dual [3]; [7],1.1
same,NF-kB SEAP reporter activity,RAW-Dual [3]; [8],1.07
COc1ccccc1N1CCN(CCN(C(=O)C2CCCCC2)c2ccccn2)CC1.O=C(O)/C=C\C(=O)O (library stock concentration (final ~1000-fold dilution): 10 mM),NF-kB SEAP reporter activity,RAW-Dual [3]; agonist: LPS (TLR4) 0.1 ug/mL,1.03
same,NF-kB SEAP reporter activity,RAW-Dual [3]; [6],0.975
same,NF-kB SEAP reporter activity,RAW-Dual [3]; [7],1.05
same,NF-kB SEAP reporter activity,RAW-Dual [3]; [8],1.18
COc1ccccc1N1CCN(CCN(C(=O)C2CCCCC2)c2ccccn2)CC1.O=C(O)/C=C\C(=O)O,NF-kB SEAP reporter activity,RAW-Dual [1]; [9],1.03
same,NF-kB SEAP reporter activity,RAW-Dual [1]; [10],1.05
O=C(CCCCCCNC(=O)c1cnc(N(c2ccccc2)c2ccccc2Cl)nc1)NO (library stock concentration (final ~1000-fold dilution): 10 mM),NF-kB SEAP reporter activity,RAW-Dual [2]; agonist: LPS (TLR4) 0.1 ug/mL,4.23
COc1cc(O)c2c(=O)cc(-c3ccc(O)c(O)c3)oc2c1,NF-kB SEAP reporter activity,RAW-Dual [1]; [9],0.999
same,NF-kB SEAP reporter activity,RAW-Dual [1]; [10],1.34
COc1cc(O)c2c(=O)cc(-c3ccc(O)c(O)c3)oc2c1 (library stock concentration (final ~1000-fold dilution): 10 mM),NF-kB SEAP reporter activity,RAW-Dual [3]; agonist: LPS (TLR4) 0.1 ug/mL,1.06
same,NF-kB SEAP reporter activity,RAW-Dual [3]; [6],0.594
same,NF-kB SEAP reporter activity,RAW-Dual [3]; [7],0.635
same,NF-kB SEAP reporter activity,RAW-Dual [3]; [8],0.656
Br.Cc1ccc(C(=O)Cn2c3c(sc2=N)CCCC3)cc1,NF-kB SEAP reporter activity,RAW-Dual [1]; [9],0.951
same,NF-kB SEAP reporter activity,RAW-Dual [1]; [10],1.1
Br.Cc1ccc(C(=O)Cn2c3c(sc2=N)CCCC3)cc1 (library stock concentration (final ~1000-fold dilution): 10 mM),NF-kB SEAP reporter activity,RAW-Dual [3]; agonist: LPS (TLR4) 0.1 ug/mL,1.32
same,NF-kB SEAP reporter activity,RAW-Dual [3]; [6],0.81
same,NF-kB SEAP reporter activity,RAW-Dual [3]; [7],0.953
same,NF-kB SEAP reporter activity,RAW-Dual [3]; [8],1.08
COc1cc2c3cc1Oc1c(OC)c(OC)cc4c1C(Cc1ccc(O)c(c1)Oc1ccc(cc1)CC3N(C)CC2)N(C)CC4 (stereo not drawn),NF-kB SEAP reporter activity,RAW-Dual [1]; [9],0.193
same,NF-kB SEAP reporter activity,RAW-Dual [1]; [10],1.54
COc1cc2c3cc1Oc1c(OC)c(OC)cc4c1C(Cc1ccc(O)c(c1)Oc1ccc(cc1)CC3N(C)CC2)N(C)CC4 (stereo not drawn) (library stock concentration (final ~1000-fold dilution): 10 mM),NF-kB SEAP reporter activity,RAW-Dual [3]; agonist: LPS (TLR4) 0.1 ug/mL,0.829
same,NF-kB SEAP reporter activity,RAW-Dual [3]; [6],0.17
same,NF-kB SEAP reporter activity,RAW-Dual [3]; [7],0.707
same,NF-kB SEAP reporter activity,RAW-Dual [3]; [8],1.01
C=CC(=O)Nc1ccc2ncnc(Nc3cccc(Br)c3)c2c1 (library stock concentration (final ~1000-fold dilution): 10 mM),NF-kB SEAP reporter activity,RAW-Dual [3]; agonist: LPS (TLR4) 0.1 ug/mL,0.22
same,NF-kB SEAP reporter activity,RAW-Dual [3]; [6],0.413
same,NF-kB SEAP reporter activity,RAW-Dual [3]; [7],0.756
same,NF-kB SEAP reporter activity,RAW-Dual [3]; [8],0.41
C=CC(=O)Nc1ccc2ncnc(Nc3cccc(Br)c3)c2c1,NF-kB SEAP reporter activity,RAW-Dual [1]; [9],1.14
same,NF-kB SEAP reporter activity,RAW-Dual [1]; [10],0.269
CCC(=O)c1c(O)cc(O)cc1O,NF-kB SEAP reporter activity,RAW-Dual [1]; [9],0.854
same,NF-kB SEAP reporter activity,RAW-Dual [1]; [10],1.02
CCC(=O)c1c(O)cc(O)cc1O (library stock concentration (final ~1000-fold dilution): 10 mM),NF-kB SEAP reporter activity,RAW-Dual [3]; agonist: LPS (TLR4) 0.1 ug/mL,1.34
same,NF-kB SEAP reporter activity,RAW-Dual [3]; [6],1.04
same,NF-kB SEAP reporter activity,RAW-Dual [3]; [7],1.3
same,NF-kB SEAP reporter activity,RAW-Dual [3]; [8],0.994
CCc1c(C)[nH]c2c1C(=O)C(CN1CCOCC1)CC2.Cl (stereo not drawn),NF-kB SEAP reporter activity,RAW-Dual [1]; [10],1.03
CCc1c(C)[nH]c2c1C(=O)C(CN1CCOCC1)CC2.Cl (stereo not drawn) (library stock concentration (final ~1000-fold dilution): 10 mM),NF-kB SEAP reporter activity,RAW-Dual [3]; agonist: LPS (TLR4) 0.1 ug/mL,0.951
same,NF-kB SEAP reporter activity,RAW-Dual [3]; [6],1.17
same,NF-kB SEAP reporter activity,RAW-Dual [3]; [7],0.961
same,NF-kB SEAP reporter activity,RAW-Dual [3]; [8],1.01
COc1c(O)c(C)cc2c1C(=O)c1c(O)cccc1C2=O (library stock concentration (final ~1000-fold dilution): 10 mM),NF-kB SEAP reporter activity,RAW-Dual [3]; agonist: LPS (TLR4) 0.1 ug/mL,1.19
same,NF-kB SEAP reporter activity,RAW-Dual [3]; [6],1.02
same,NF-kB SEAP reporter activity,RAW-Dual [3]; [7],1.04
same,NF-kB SEAP reporter activity,RAW-Dual [3]; [8],1.01
COc1c(O)c(C)cc2c1C(=O)c1c(O)cccc1C2=O,NF-kB SEAP reporter activity,RAW-Dual [1]; [9],0.981
same,NF-kB SEAP reporter activity,RAW-Dual [1]; [10],1.08
CN1CCN(CCOc2cc(OC3CCOCC3)c3c(Nc4c(Cl)ccc5c4OCO5)ncnc3c2)CC1 (library stock concentration (final ~1000-fold dilution): 10 mM),NF-kB SEAP reporter activity,RAW-Dual [2]; agonist: LPS (TLR4) 0.1 ug/mL,0.942
same,NF-kB SEAP reporter activity,RAW-Dual [2]; [6],0.219
same,NF-kB SEAP reporter activity,RAW-Dual [2]; [7],0.616
same,NF-kB SEAP reporter activity,RAW-Dual [2]; [8],0.829
CN1CCN(CCOc2cc(OC3CCOCC3)c3c(Nc4c(Cl)ccc5c4OCO5)ncnc3c2)CC1,NF-kB SEAP reporter activity,RAW-Dual [1]; [4],2.07
same,NF-kB SEAP reporter activity,RAW-Dual [1]; [5],1.88
